Consider 31 molecules from PMC9911399, “Two distinct binding modes provide the RNA-binding protein RbFox with extraordinary sequence specificity”.

Positions count from the first letter of the chain named. Some of the results follow.

The labels stand for the following.
T1: RBFOX1 RRM RbFoxmut (Fox-RRM*) (Homo sapiens, UniProt Q9NWB1 109-208, R118D;E147R;N151S;E152T)
T1 sequence: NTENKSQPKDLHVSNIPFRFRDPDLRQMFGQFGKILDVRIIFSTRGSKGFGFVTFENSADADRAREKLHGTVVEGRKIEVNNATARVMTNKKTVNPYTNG

B1: AUUCCGG (DNA:RNA)
RNA: GGGAGACCGGAAUUCAGAUUGUCCAUUCCGGUUAAAUCCCGUCGUAGCCACCA
DNA 1: CAATCTGAATTCCGGTCTCCC
DNA 2: TGGTGGCTACGACGGGATT
B2: CCCUCGU (DNA:RNA)
RNA: B1 RNA with A25C, U26C, U27C, C28U, G31U
DNA 1: CAATCTGAATTCCGGTCTCCC
DNA 2: TGGTGGCTACGACGGGATT
B3: AAUACUA (DNA:RNA)
RNA: B1 RNA with U26A, C28A, G30U, G31A
DNA 1: CAATCTGAATTCCGGTCTCCC
DNA 2: TGGTGGCTACGACGGGATT
B4: CUGACAG (DNA:RNA)
RNA: B1 RNA with A25C, U27G, C28A, G30A
DNA 1: CAATCTGAATTCCGGTCTCCC
DNA 2: TGGTGGCTACGACGGGATT
B5: CUAGCGG (DNA:RNA)
RNA: B1 RNA with A25C, U27A, C28G
DNA 1: CAATCTGAATTCCGGTCTCCC
DNA 2: TGGTGGCTACGACGGGATT
B6: CACUAUA (DNA:RNA)
RNA: GGGAGACCGGAAUUCAGAUUGUCCCACUAUAUUAAAUCCCGUCGUAGCCACCA
DNA 1: CAATCTGAATTCCGGTCTCCC
DNA 2: TGGTGGCTACGACGGGATT
B7: AGGUUUG (DNA:RNA)
RNA: B1 RNA with U26G, U27G, C28U, C29U, G30U
DNA 1: CAATCTGAATTCCGGTCTCCC
DNA 2: TGGTGGCTACGACGGGATT
B8: UUGAUGU (DNA:RNA)
RNA: B1 RNA with A25U, U27G, C28A, C29U, G31U
DNA 1: CAATCTGAATTCCGGTCTCCC
DNA 2: TGGTGGCTACGACGGGATT
B9: UUAUGAU (DNA:RNA)
RNA: B1 RNA with A25U, U27A, C28U, C29G, G30A, G31U
DNA 1: CAATCTGAATTCCGGTCTCCC
DNA 2: TGGTGGCTACGACGGGATT
B10: AGCUCUA (DNA:RNA)
RNA: B6 RNA with C25A, A26G, A29C
DNA 1: CAATCTGAATTCCGGTCTCCC
DNA 2: TGGTGGCTACGACGGGATT
B11: GAAGAAU (DNA:RNA)
RNA: B6 RNA with C25G, C27A, U28G, U30A, A31U
DNA 1: CAATCTGAATTCCGGTCTCCC
DNA 2: TGGTGGCTACGACGGGATT
B12: UAAGUAC (DNA:RNA)
RNA: B6 RNA with C25U, C27A, U28G, A29U, U30A, A31C
DNA 1: CAATCTGAATTCCGGTCTCCC
DNA 2: TGGTGGCTACGACGGGATT
B13: CACGUGA (DNA:RNA)
RNA: B6 RNA with U28G, A29U, U30G
DNA 1: CAATCTGAATTCCGGTCTCCC
DNA 2: TGGTGGCTACGACGGGATT
B14: CAAUAAG (DNA:RNA)
RNA: B6 RNA with C27A, U30A, A31G
DNA 1: CAATCTGAATTCCGGTCTCCC
DNA 2: TGGTGGCTACGACGGGATT
B15: GACCGUA (DNA:RNA)
RNA: B6 RNA with C25G, U28C, A29G
DNA 1: CAATCTGAATTCCGGTCTCCC
DNA 2: TGGTGGCTACGACGGGATT
B16: UCACCAC (DNA:RNA)
RNA: B1 RNA with A25U, U26C, U27A, G30A, G31C
DNA 1: CAATCTGAATTCCGGTCTCCC
DNA 2: TGGTGGCTACGACGGGATT
B17: AGGUUUC (DNA:RNA)
RNA: B6 RNA with C25A, A26G, C27G, A29U, A31C
DNA 1: CAATCTGAATTCCGGTCTCCC
DNA 2: TGGTGGCTACGACGGGATT
B18: GGCGAGG (DNA:RNA)
RNA: B1 RNA with A25G, U26G, U27C, C28G, C29A
DNA 1: CAATCTGAATTCCGGTCTCCC
DNA 2: TGGTGGCTACGACGGGATT
B19: UACGGCG (DNA:RNA)
RNA: B6 RNA with C25U, U28G, A29G, U30C, A31G
DNA 1: CAATCTGAATTCCGGTCTCCC
DNA 2: TGGTGGCTACGACGGGATT
B20: GCAUUCC (DNA:RNA)
RNA: B6 RNA with C25G, A26C, C27A, A29U, U30C, A31C
DNA 1: CAATCTGAATTCCGGTCTCCC
DNA 2: TGGTGGCTACGACGGGATT
B21: GCAUGAC (DNA:RNA)
RNA: B6 RNA with C25G, A26C, C27A, A29G, U30A, A31C
DNA 1: CAATCTGAATTCCGGTCTCCC
DNA 2: TGGTGGCTACGACGGGATT
B22: AAGGAGA (DNA:RNA)
RNA: B6 RNA with C25A, C27G, U28G, U30G
DNA 1: CAATCTGAATTCCGGTCTCCC
DNA 2: TGGTGGCTACGACGGGATT
B23: GGUGGGU (DNA:RNA)
RNA: B1 RNA with A25G, U26G, C28G, C29G, G31U
DNA 1: CAATCTGAATTCCGGTCTCCC
DNA 2: TGGTGGCTACGACGGGATT
B24: GCUUGGC (DNA:RNA)
RNA: B1 RNA with A25G, U26C, C28U, C29G, G31C
DNA 1: CAATCTGAATTCCGGTCTCCC
DNA 2: TGGTGGCTACGACGGGATT
B25: UGUCAAA (DNA:RNA)
RNA: B1 RNA with A25U, U26G, C29A, G30A, G31A
DNA 1: CAATCTGAATTCCGGTCTCCC
DNA 2: TGGTGGCTACGACGGGATT
B26: CAGGUUA (DNA:RNA)
RNA: B6 RNA with C27G, U28G, A29U
DNA 1: CAATCTGAATTCCGGTCTCCC
DNA 2: TGGTGGCTACGACGGGATT
B27: ACACCUA (DNA:RNA)
RNA: B1 RNA with U26C, U27A, G30U, G31A
DNA 1: CAATCTGAATTCCGGTCTCCC
DNA 2: TGGTGGCTACGACGGGATT
B28: CGUACUC (DNA:RNA)
RNA: B1 RNA with A25C, U26G, C28A, G30U, G31C
DNA 1: CAATCTGAATTCCGGTCTCCC
DNA 2: TGGTGGCTACGACGGGATT
B29: UGUUAAU (DNA:RNA)
RNA: B6 RNA with C25U, A26G, C27U, U30A, A31U
DNA 1: CAATCTGAATTCCGGTCTCCC
DNA 2: TGGTGGCTACGACGGGATT
B30: CGAAGGG (DNA:RNA)
RNA: B1 RNA with A25C, U26G, U27A, C28A, C29G
DNA 1: CAATCTGAATTCCGGTCTCCC
DNA 2: TGGTGGCTACGACGGGATT
B31: GGACCUC (DNA:RNA)
RNA: B1 RNA with A25G, U26G, U27A, G30U, G31C
DNA 1: CAATCTGAATTCCGGTCTCCC
DNA 2: TGGTGGCTACGACGGGATT

This test has as its target T1, RBFOX1 RRM RbFoxmut (Fox-RRM*). Kind of test: EMSA; HiTS-Eq, 1 nM pool, 10 min; buffer printed only for the single-RNA assays: 10 mM Tris pH 7.5, 150 mM NaCl, 3.4 mM EDTA, 0.001% NP-40, 30 C. Conditions: tags: His6 N-terminal (pET28a); label: 5' 32P. The gist of the method: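 Purified RbFox RRM, wild type or mutant, was incubated for 10 min in 50 µL with 1 nM of a 5′-radiolabelled RNA pool carrying 7 randomized nucleotides, whose flanks were annealed to DNA oligonucleotides, over a series of increasing protein concentrations. Unbound RNA was resolved on 8% native PAGE, cut out, reverse-transcribed, barcoded by PCR and sequenced on an Illumina HiSeq 2500. Relative association constants were derived from changes in read counts for each RNA species versus the control reaction and normalised to the cognate motif.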
(In EMSA bound probe runs differently from free probe, usually more slowly.)
For B1, the binding signal was 0.0577 KA relative to UGCAUGU.
In the case of B2 it was 0.109 KA relative to UGCAUGU.
The same measure for B3: 0.111 KA relative to UGCAUGU; for B4: 0.0519 KA relative to UGCAUGU; for B5: 0.0785 KA relative to UGCAUGU.
In the case of B6 it was 0.123 KA relative to UGCAUGU; in that of B7, 0.525 KA relative to UGCAUGU; in that of B8, 0.127 KA relative to UGCAUGU.
With B9, the binding signal was 0.0757 KA relative to UGCAUGU.
In the case of B10 it was 0.075 KA relative to UGCAUGU; in that of B11, 0.0873 KA relative to UGCAUGU; in that of B12, 0.0736 KA relative to UGCAUGU.
The same measure for B13: 0.101 KA relative to UGCAUGU; for B14: 0.11 KA relative to UGCAUGU.
In the case of B15 it was 0.103 KA relative to UGCAUGU; in that of B16, 0.0709 KA relative to UGCAUGU; in that of B17, 0.136 KA relative to UGCAUGU.
With B18, the binding signal was 0.0853 KA relative to UGCAUGU.
In the case of B19 it was 0.0842 KA relative to UGCAUGU; in that of B20, 0.0531 KA relative to UGCAUGU.
In the case of B21 it was 0.603 KA relative to UGCAUGU; in that of B22, 0.0757 KA relative to UGCAUGU.
As for B23, the binding signal is 0.0962 KA relative to UGCAUGU.
In the case of B24 it was 0.185 KA relative to UGCAUGU; in that of B25, 0.0676 KA relative to UGCAUGU; in that of B26, 0.132 KA relative to UGCAUGU.
B27: the binding signal is 0.131 KA relative to UGCAUGU.
The same measure for B28: 0.0656 KA relative to UGCAUGU.
The same measure for B29: 0.0817 KA relative to UGCAUGU; for B30: 0.0619 KA relative to UGCAUGU.
B31: the binding signal is 0.0679 KA relative to UGCAUGU.
